Assay results from PubChem BioAssay AID1468 (National Center for Advancing Translational Sciences (NCATS), 2008).
Out of some 280,000 compounds screened, about 1,100 (0.39%) were called active. The inconclusive results got no clear call from the source; some entries with a clear call stand among them for comparison. The call rests on the fitted dose curve; in most records, active means well fitted inhibition curve with a large enough effect; inconclusive means small, poorly fitted or top-dose-only effect, or effect the other way; inactive means flat fitted curve, though single readings scatter. Potencies of inconclusive entries are left out as doubtful fits.

What follows are molecules tested against Microtubule-associated protein tau (Homo sapiens) (UniProt P10636) (assay: qHTS for Inhibitors of Tau Fibril Formation, Fluorescence Polarization). Conditions: K18 P301L tau heparin fibrillization, Alexa594 FP, 6 h; series mostly up to 57.7 µM.
Chain of UniProt P10636 (P10636 whole entry, looked up): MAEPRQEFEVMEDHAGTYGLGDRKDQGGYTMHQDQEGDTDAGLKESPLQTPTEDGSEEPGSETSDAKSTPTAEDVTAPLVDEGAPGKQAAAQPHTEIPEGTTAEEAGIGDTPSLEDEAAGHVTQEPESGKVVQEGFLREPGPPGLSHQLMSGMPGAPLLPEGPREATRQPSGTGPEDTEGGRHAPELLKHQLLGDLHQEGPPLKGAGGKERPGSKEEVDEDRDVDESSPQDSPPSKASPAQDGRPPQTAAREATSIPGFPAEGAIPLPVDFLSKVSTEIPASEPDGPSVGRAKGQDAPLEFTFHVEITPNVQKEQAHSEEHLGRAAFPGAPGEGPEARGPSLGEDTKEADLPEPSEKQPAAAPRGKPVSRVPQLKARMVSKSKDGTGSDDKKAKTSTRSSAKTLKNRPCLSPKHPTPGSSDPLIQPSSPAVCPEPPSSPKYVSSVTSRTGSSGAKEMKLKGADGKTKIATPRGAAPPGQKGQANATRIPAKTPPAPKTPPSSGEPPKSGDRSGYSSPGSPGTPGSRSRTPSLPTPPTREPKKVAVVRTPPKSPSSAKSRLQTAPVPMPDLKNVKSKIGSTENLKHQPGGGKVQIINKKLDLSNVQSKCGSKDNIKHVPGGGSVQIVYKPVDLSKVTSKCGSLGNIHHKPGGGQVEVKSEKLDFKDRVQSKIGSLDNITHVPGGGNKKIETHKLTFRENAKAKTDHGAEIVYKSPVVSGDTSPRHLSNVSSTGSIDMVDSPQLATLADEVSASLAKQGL
In short: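 Quantitative HTS format: compounds meet 15 uM recombinant K18 P301L tau and Alexa 594-tau tracer in 100 mM sodium acetate pH 7; 20 uM heparin triggers fibrillization at 37 C over 6 hr; FP gives the signal.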
Further: nearly all actives have a fitted effect of over 55% in size.
On the % scale 0 is the no-effect control and ±100 the full control effect; potency means the concentration at half of the fitted maximal effect; tags describe the fitted curve by direction and shape.

SMILES | Potency | activity, negative = inhibition
O=C(Cn1cc(SCc2ccc(Br)cc2)c2ccccc21)N1CCCCC1 | inconclusive [inhibitor, single point] | 
Cc1ccc(/C=C(\C#N)C(=O)Nc2ccc(Br)cc2)o1 | inconclusive [inhibitor, single point] | 
COC(=O)C(C)Sc1nc2c(c(=O)n(C)c(=O)n2C)n1Cc1cccc(C)c1 (stereo not given) | inconclusive [inhibitor, single point] | 
O=C(c1ccccc1)N1CCN(C(=O)C23CC4CC(CC(C4)C2)C3)CC1 | inactive | 
Cn1c(CCNC(=O)c2ccco2)nc2cc(NS(=O)(=O)c3ccccc3)ccc21 | inactive | 
CC(Sc1ccsc1[N+](=O)[O-])C(=O)NCCc1ccc(Cl)cc1 (stereo not given) | inconclusive [activator, single point] | 
CC1CCCC(NC(=O)COC(=O)c2cccc(NS(=O)(=O)/C=C/c3ccccc3)c2)C1C (stereo not given) | inconclusive [inhibitor, partial curve, poor fit] | 
CCc1nc2ccc(C(=O)NCc3ccc(N(C)C)cc3)cc2nc1CC | inconclusive [activator, single point] | 
CCOC(=O)c1c(C)[nH]c(C)c1C(=O)COC(=O)CNC(=O)c1ccc(OCC)cc1 | inactive | 
Cc1cc(C(=O)N/N=C/c2ccc(O)c(O)c2O)c(C)n1-c1ccccc1 | inactive | 
Cc1ccc(-c2csc(NC(=O)CSc3nc4ccccc4[nH]3)n2)cc1 | inconclusive [inhibitor, partial curve, poor fit] | 
CN(C)CC(O)Cn1c2ccc(Br)cc2c2cc(Br)ccc21 (stereo not given) | active: 25.1 µM | 
CC[C@H]1C(c2ccccc2)=NN(c2ccccc2)[C@@H]1CO | inconclusive [activator, partial curve] | 
CC(=O)c1c(C)[nH]c(C2=NNC(=NC(C)(C)C)SC2)c1C | inconclusive [inhibitor, single point] | 
OC(COCC(F)(F)C(F)(F)C(F)(F)C(F)F)Cn1c2ccc(Cl)cc2c2cc(Cl)ccc21 (stereo not given) | active: 10 µM | 
Cc1ccc2c(C)ccc(O)c2n1 | inactive | 
O=C1S/C(=C/c2ccccc2)C(=O)N1CC(O)Cn1c2ccccc2c2ccccc21 (stereo not given) | inconclusive [inhibitor, single point] | 
COc1ccc(CNc2nc(-c3ccc(OC)cc3)cc(C(F)(F)F)n2)cc1 | inconclusive [inhibitor, partial curve] | 
CCCC(=O)N1CCc2cc(OC)c(OC)cc2C1COc1ccc2c(C)cc(=O)oc2c1 (stereo not given) | inactive | 
CNC(=S)N/N=C/c1cn(CCOc2ccc(OC)cc2)c2ccccc12 | inconclusive [activator, partial curve] | 
COc1ccc(NC(=O)c2cnc(Nc3ccc(C)c(Cl)c3)c3ccccc23)c(OC)c1 | inconclusive [inhibitor, partial curve] | 
O/N=C/c1cc(Cl)ccc1OCc1cccc2ccccc12 | inconclusive [inhibitor, partial curve] | 

SMILES | Potency | activity, negative = inhibition
Cc1[nH]nc(-c2ccc(OCc3cnn(-c4ccccc4)c3)cc2O)c1Oc1ccc(Cl)cc1 | inconclusive [inhibitor, single point] | 
C=CCNC(=S)/C(=C(\[O-])c1ccc(Cl)cc1)[n+]1ccccc1 | inconclusive [inhibitor, partial curve] | 
Cc1ccccc1CCNC(=O)c1ccc(NC(=O)N2CC(C)Sc3ccccc32)cc1 (stereo not given) | inconclusive [inhibitor, single point] | 
O=C(CSc1nnc2scc(-c3ccc(Cl)cc3)n12)NCc1ccc2c(c1)OCO2 | inactive | 
C=CCN1c2ccccc2[C@]23C[C@@H](C(=O)OC)N(S(=O)(=O)c4ccc5c(c4)OCCN5C)C2=NC(C(=O)OC)=C(C(=O)OC)[C@H]13 |  | inactive: -0.716% [at 11.6 µM]
CN(C(=O)c1ccccc1)c1ccc(OCC(=O)NC2CCS(=O)(=O)C2)cc1 (stereo not given) | inactive | 
CC(C)OC(=O)CCCN1C(=O)c2ccc(N)cc2C1=O | inconclusive [activator, partial curve, poor fit] | 
CCOc1ccc(NC(=O)CSc2oc(-c3cccs3)nc2S(=O)(=O)c2ccc(C)cc2)cc1 | inconclusive [inhibitor, partial curve] | 
Cc1cc(Br)ccc1SCC(=O)OCC(=O)NC1CCCC1 | inconclusive [activator, partial curve] | 
Cc1ccc(C#N)c(SCc2cc3c(cc2Cl)OCO3)n1 | inconclusive [inhibitor, full curve, poor fit] | 
Cc1cc(S(=O)(=O)N2CCCC2)c(C)s1 | inactive | 
CCc1ccc(NC(=O)C(=O)NCCc2csc(-c3cccc(F)c3)n2)cc1 | inactive | 
Cc1ccc(N2CC(C(=O)Oc3cccc(N4C(=O)CCC4=O)c3)CC2=O)cc1 (stereo not given) | inconclusive [activator, single point] | 
Cc1[nH][nH]c(=O)c1C(c1c(C)[nH][nH]c1=O)c1cn(Cc2ccc(Cl)c(Cl)c2)c2ccccc12 | inconclusive [inhibitor, partial curve] | 
O=C1CCCc2c1cc(C(=O)Nc1ccc(Br)cn1)c(=O)n2-c1ccccc1 | inconclusive [inhibitor, single point] | 
CCOc1ccc(C2=NNC(c3cccs3)=Nc3ccc(OCC)cc32)cc1 | inconclusive [activator, partial curve] | 
Cc1nn2c3c(cnc2c1-c1ccc(Cl)cc1)C(=O)CC(c1ccc(C(C)C)cc1)C3 (stereo not given) | inactive | 
COc1ccc(NC(=O)CN2C(=O)C(C)(C)c3cc(S(=O)(=O)N4CCCCC4)ccc32)cc1Cl | inconclusive [inhibitor, partial curve] | 
CC(C)(C)c1cc(CN2CCN(CCC#N)CC2)cc(C(C)(C)C)c1O | inconclusive [activator, partial curve] | 
CCN(CC)S(=O)(=O)c1cccc(NC(=O)COC(=O)/C=C/c2cccs2)c1 | inconclusive [inhibitor, partial curve] | 
COc1ccc(C2NC(=O)NC3=C2CCc2ccccc23)cc1 (stereo not given) | inconclusive [inhibitor, partial curve, poor fit] | 
NS(=O)(=O)c1ccc(CNC(=O)c2cc(-c3ccccc3)nc3ccccc23)cc1 | inactive | 

SMILES | Potency | activity, negative = inhibition
O=C(COc1cccc(Oc2ccccc2)c1)Nc1ccc(SC(F)F)cc1 | inconclusive [inhibitor, single point] | 
CCCC(=O)Nc1ccccc1NC(=O)c1ccc(OC(C)=O)cc1 | inactive | 
CCc1ccc(NS(=O)(=O)c2ccc3[nH]cc(C(=O)N4CCc5ccccc54)c(=O)c3c2)cc1 | inconclusive [inhibitor, partial curve] | 
CCn1c(SCC(=O)NCc2ccco2)nnc1C(C)C | inconclusive [inhibitor, single point] | 
CCOc1cc(C2CC(=O)NC(SCC)=C2C#N)ccc1O (stereo not given) | inactive | 
Cc1[nH][nH]c(=O)c1C(c1ccc(-c2ccccc2C(=O)O)o1)c1c(C)[nH][nH]c1=O | inconclusive [inhibitor, partial curve] | 
Cc1ccc(/C=C/c2onc(C)c2S(=O)(=O)N2CCC(C(=O)Nc3ccc(OC(F)(F)F)cc3)CC2)cc1 | inconclusive [inhibitor, partial curve, poor fit] | 
COc1cccc([C@@H]2Oc3ccc(OC)cc3C(=O)[C@H]2OC(=O)NS(=O)(=O)c2ccc(F)cc2)c1 | inconclusive [inhibitor, single point] | 
O=C(NCC(c1cccnc1)N1CCc2ccccc2C1)C(=O)Nc1ccccc1F (stereo not given) | inconclusive [inhibitor, single point] | 
Cc1ccc(C(=O)CSc2ncnc3sc4c(c23)CCCC4)cc1 | inconclusive [inhibitor, full curve, poor fit] | 
CNC(=S)N/N=C/c1ccc(N2CCOCC2)s1 | inconclusive [inhibitor, single point] | 
CCN(CC(=O)NC(C)C)C(=O)[C@H](C)NC(=O)c1ccc(Br)cc1 | inconclusive [inhibitor, full curve, poor fit] | 
CCCCc1ccc(Nc2cc(C)nc(-n3nc(C)cc3C)n2)cc1 | inconclusive [activator, partial curve, poor fit] | 
COc1cc(OC)cc(C(=O)Nc2ccc3nc4c(c(Nc5ccc(OC)c(OC)c5)c3c2)CCCC4)c1 | inconclusive [activator, full curve, poor fit] | 
Cc1ccc(OC(=O)c2sc(Cl)nc2C)cc1C | inactive | 
CC(C)Cn1c(Cc2ccccc2)n[nH]c1=S | inactive | 
O=C(/C=C/c1ccco1)N(Cc1ccc(F)cc1)C1CCS(=O)(=O)C1 (stereo not given) | inconclusive [inhibitor, partial curve] | 
COC(=O)c1cc2sccc2n1Cc1ccc(C)cc1 | inconclusive [inhibitor, single point] | 
COc1ccc(-c2noc(-c3cccc(Cl)c3)n2)cc1OC | inconclusive [inhibitor, partial curve] | 
Cc1cccc(NC(=O)c2nc[nH]c2C(=O)N[C@@H](CC(C)C)C(=O)OC(C)(C)C)c1 | active: 12.6 µM | 
COc1ccc(-c2csc(Nc3cccnc3)n2)cc1 | inconclusive [activator, single point] | 
